Results: publication PMC4336329 (PLoS ONE, 2015)
About 14,000 (4.5%) of roughly 310,000 compounds showed an effect of 50% or more. The effect is printed as a negative number. The list shows a part of the results.

What follows are molecules tested against human ether-à-go-go-related gene (hERG) potassium channel (human, UniProt Q12809) (assay: primary screen, population patch clamp on CHO cells stably expressing hERG).
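Note: peak tail current of the secondary pulse compared with the same well before compound.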

Chain of human ether-à-go-go-related gene (hERG) potassium channel (Q12809 whole entry, looked up): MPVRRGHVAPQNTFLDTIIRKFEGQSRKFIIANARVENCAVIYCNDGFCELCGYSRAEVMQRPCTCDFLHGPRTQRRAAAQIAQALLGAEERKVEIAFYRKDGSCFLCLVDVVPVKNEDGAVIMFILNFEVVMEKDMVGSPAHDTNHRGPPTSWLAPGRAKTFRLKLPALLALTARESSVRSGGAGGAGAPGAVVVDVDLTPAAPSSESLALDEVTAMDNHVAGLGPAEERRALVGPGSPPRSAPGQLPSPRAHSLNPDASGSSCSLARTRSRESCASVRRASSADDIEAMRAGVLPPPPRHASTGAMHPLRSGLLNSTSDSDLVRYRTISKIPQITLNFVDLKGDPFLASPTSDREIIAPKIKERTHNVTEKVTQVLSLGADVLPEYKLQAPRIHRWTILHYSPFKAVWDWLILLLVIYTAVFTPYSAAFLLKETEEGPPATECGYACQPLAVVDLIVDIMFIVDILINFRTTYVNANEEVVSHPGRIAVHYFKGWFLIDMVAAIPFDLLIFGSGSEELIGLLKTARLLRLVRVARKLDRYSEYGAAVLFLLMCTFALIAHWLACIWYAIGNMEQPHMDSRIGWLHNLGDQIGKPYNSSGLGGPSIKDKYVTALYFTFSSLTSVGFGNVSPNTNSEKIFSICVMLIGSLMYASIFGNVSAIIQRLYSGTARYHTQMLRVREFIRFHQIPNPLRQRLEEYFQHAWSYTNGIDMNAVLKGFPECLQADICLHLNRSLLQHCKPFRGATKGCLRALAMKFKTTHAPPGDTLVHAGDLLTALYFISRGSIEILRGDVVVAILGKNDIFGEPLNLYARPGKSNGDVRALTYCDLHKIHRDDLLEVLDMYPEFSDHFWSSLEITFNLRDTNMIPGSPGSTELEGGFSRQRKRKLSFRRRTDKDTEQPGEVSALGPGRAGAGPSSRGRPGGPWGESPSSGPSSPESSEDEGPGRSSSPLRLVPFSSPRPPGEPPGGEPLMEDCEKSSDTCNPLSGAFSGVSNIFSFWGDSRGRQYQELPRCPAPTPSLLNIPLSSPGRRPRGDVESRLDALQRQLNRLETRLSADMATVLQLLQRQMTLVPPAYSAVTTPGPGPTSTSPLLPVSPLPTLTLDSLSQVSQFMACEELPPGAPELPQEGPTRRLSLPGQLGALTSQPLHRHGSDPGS

| SMILES | hERG current change (%, negative = inhibition) at 10uM [%] |
| --- | --- |
| CCS(=O)(=O)n1nc(-c2ccccc2)nc1NCc1ccco1 | -29.9 |
| CSc1nc(C)cc(C)c1C(N)=O | 8.49 |
| COCCNCCCCOc1ccccc1-c1ccccc1.O=C(O)C(=O)O | -27.5 |
| COCCNCC(=O)C12CC3CC(CC(C3)C1)C2.Cl | 4.15 |
| CS(=O)(=O)N(Cc1ccccc1Cl)c1ccc(C(=O)N2CCCC2)cc1 | 4.59 |
| O=c1c2ccccc2ncn1CCCSc1ccc(Cl)cc1 | -4.74 |
| COc1ccc(C)cc1S(=O)(=O)n1nc(C)cc1C | 23.8 |
| CN1CCN(S(=O)(=O)c2ccc(NS(=O)(=O)c3ccccc3)cc2)CC1 | 14.5 |
| COc1ccc(S(=O)(=O)N2CCN(CCC(=O)Nc3ccc(F)cc3)CC2)cc1 | -18.9 |
| CCCCCCn1c(SCC(=O)c2c(N)n(C)c(=O)n(C)c2=O)nc2ccccc21 | -1.34 |
| CCO/C=C1/C(=O)N(CC)c2ccccc21 | -8.33 |
| Cc1ccc(C)c(OCCC(=O)N(C)CC(=O)Nc2c(C)cccc2C)c1 | -8.69 |
| Cc1nnsc1S(=O)c1ccc(Br)cc1 (stereo not shown) | -1.16 |
| COc1ccc(C(CNC(=O)c2cncc(Br)c2)N(C)C)cc1 (stereo not shown) | -1.84 |
| OC1(C2(O)CC(c3ccccc3)ON2)CCCCC1 (stereo not shown) | 3.57 |
| COc1cc(C2NC(=O)C(C#N)=C(S)N2c2ccc(C)cc2)ccc1OC(C)C (stereo not shown) | 16.2 |
| Cc1nc2cc(N3CCOCC3)c(NC(=O)C3CC3)cc2c(=O)n1Cc1ccccc1 | -29.3 |
| Cc1c(N(C(=O)Cc2cccs2)C2(C(=O)NC3CCCC3)CCCCC2)c(=O)n(-c2ccccc2)n1C | -49.7 |
| C/C(CC(C)C)=N\NC(=O)Nc1ccccc1 | -40.8 |
| Cn1c(=O)c2c(ncn2CC(=O)N(Cc2ccccc2)c2ccccn2)n(C)c1=O | -50.7 |

| SMILES | hERG current change (%, negative = inhibition) at 10uM [%] |
| --- | --- |
| Clc1ccc(Cn2cc(/C=N/n3cnnc3)c3ccccc32)cc1 | -14.5 |
| O=C(c1ccc(-n2cnnn2)cc1)N1CCOCC1 | -1.64 |
| CCCCC(CC)CNS(=O)(=O)c1ccc2c(c1)CCN2C(=O)CCC(=O)O (stereo not shown) | -5.1 |
| O=C(Nc1ccccc1N1CCCCC1)c1cccc(Cl)c1 | 13.5 |
| CNS(=O)(=O)c1cccc(C(=O)OC2CCOC2=O)c1 (stereo not shown) | 12.5 |
| CS(=O)(=O)N1CCc2cc(C(=O)Nc3ccc(O)cc3)ccc21 | 12.9 |
| COc1cccc(OC)c1C(=O)N1CCN(Cc2ccc3c(c2)OCO3)CC1 | -12 |
| CC1=Nn2c(nnc2-c2cc(-c3ccccc3)n[nH]2)SC1 | 1.7 |
| O=C(CCN1C(=O)c2cccc3cccc(c23)C1=O)NCc1cccnc1 | -16.7 |
| CN(C)c1ccc(C(C(=O)NC2CCCCC2)N(Cc2ccco2)C(=O)c2snc(C(N)=O)c2N)cc1 (stereo not shown) | -24.2 |
| COc1ccccc1N1CCN(C2CCCN(C(=O)CCN3CCCCO3)C2)CC1 (stereo not shown) | 8.84 |
| Cc1ccsc1C(=O)NNC(=O)c1ccc(NS(=O)(=O)c2cccs2)cc1 | 20.4 |
| O=C(NC1CCCCCCC1)c1cccs1 | 8.39 |
| O=C(NC(c1ccccc1)c1ccccc1)C1CCCC1 | 11.2 |
| CCOc1ccccc1N1CCN(C(=O)c2cccc(S(=O)(=O)N3CCOCC3)c2)CC1 | -11.6 |
| COCCNC(=O)Cn1cc(/C=N/NC(=O)c2ccc(Oc3ccc(O)cc3)cc2)c2ccccc21 | 10.5 |
| Cc1sc2ncnc(N3CCCCC3C)c2c1C (stereo not shown) | -13.6 |
| O=C(O)C(NC(=O)c1ccccc1)=C(Cl)Cl | 19.6 |
| COc1cc(S(=O)(=O)NC2CC(C)(C)NC(C)(C)C2)c(OC)cc1Cl | 5.37 |
| Fc1ccc(C2c3cccn3CCN2C(=S)Nc2cccc(F)c2)cc1 (stereo not shown) | 6.02 |

| SMILES | hERG current change (%, negative = inhibition) at 10uM [%] |
| --- | --- |
| CN(C(=O)c1ccncc1)c1ccccc1 | 20.8 |
| Cc1cc(C)c2c(n1)sc1c(=O)[nH]c(SCc3ccccc3)nc12 | 3.41 |
| Cc1ccccc1CN1CCC(n2nccc2NC(=O)CCCc2ccccc2)CC1 | -49.3 |
| CCOc1ccc(NC(=O)Nc2ccc3c(c2)nc(C)n3C)cc1 | 1.49 |
| C/C(=N/NC(=O)CNC(=O)CCc1ccccc1)c1ccc(Cl)c(Cl)c1 | 10.3 |
| CCc1nnc(NC(=O)CCS(=O)(=O)c2ccccc2)s1 | 23.8 |
| COc1ccc(S(=O)(=O)N[C@@H](Cc2ccccc2)C(=O)N2CC[C@@]3(O)CCCC[C@H]3C2)cc1 | -14.9 |
| COc1ccc(C=O)cc1Oc1nc(Cl)ncc1F | 22.6 |
| Cc1ccc(-c2cc(C(=O)O)c3ccccc3n2)c(C)c1 | 3.75 |
| COc1ccc(NC(=O)C(c2ccccc2)N(C)C(=O)c2ccc(=O)[nH]c2)cc1 (stereo not shown) | 10.5 |
| CC1=C(C(=O)Nc2ccccc2)C(c2ccco2)NC(=S)N1 (stereo not shown) | 22.7 |
| COc1ccc(-c2nc(C#N)c(N3CCC(C)CC3)o2)cc1 | -34.2 |
| CCCCCCN(C(=O)CCl)c1ccccc1 | -3.01 |
| FC(F)(F)c1cccc(CN2CCN(c3ncccn3)CC2)c1 | 3.78 |
| Cc1ccc2nc(NCC(=O)NN)nc(-c3ccccc3)c2c1 | 3.86 |
| CN(C1CCCCC1)S(=O)(=O)c1ccc2[nH]c(=O)oc2c1 | -7.46 |
| O=C1C(c2ccccc2)C(c2ccccc2)NC(c2ccccc2)C1c1ccccc1 (stereo not shown) | 16.6 |
| O=C(CSc1nnc(CCc2nc3ccccc3[nH]2)n1-c1ccccc1)NCc1ccccc1 | 0.84 |
